Test results published in patent publication US20250236679A1 (Chugai, published 2025).

Target: T1, human DLL3 expressed on cells (human DLL3/BaF3) (human, UniProt Q9NYJ7 27-618)
T1 construct: Full-length human DLL3 on the membrane of transformed Ba/F3 cells; The ADCC assays also used NCI-H1184 small-cell lung cancer cells that express DLL3; also called Delta-like 3; NM_016941
T1 sequence: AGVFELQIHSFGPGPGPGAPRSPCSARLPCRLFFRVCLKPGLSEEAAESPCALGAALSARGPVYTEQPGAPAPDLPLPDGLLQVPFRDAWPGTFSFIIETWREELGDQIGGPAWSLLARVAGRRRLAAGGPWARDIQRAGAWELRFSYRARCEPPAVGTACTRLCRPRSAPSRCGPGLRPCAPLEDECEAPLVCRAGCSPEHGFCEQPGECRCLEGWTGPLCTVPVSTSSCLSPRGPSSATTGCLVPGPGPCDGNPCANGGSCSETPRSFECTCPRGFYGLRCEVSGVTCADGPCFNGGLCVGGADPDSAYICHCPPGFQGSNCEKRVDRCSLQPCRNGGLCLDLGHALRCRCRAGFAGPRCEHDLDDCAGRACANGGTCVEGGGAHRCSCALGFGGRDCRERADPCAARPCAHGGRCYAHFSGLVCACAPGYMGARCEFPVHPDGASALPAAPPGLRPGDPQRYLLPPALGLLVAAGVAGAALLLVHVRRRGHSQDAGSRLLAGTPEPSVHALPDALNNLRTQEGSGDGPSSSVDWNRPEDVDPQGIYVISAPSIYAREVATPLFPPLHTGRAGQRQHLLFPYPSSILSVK
Assay: flow cytometry on human DLL3/BaF3 cells, chimeric antibody 1 µg/ml
Method: The chimeric antibody in the culture supernatant of COS-7 was confirmed to bind to the human DLL3 protein by flow cytometry and ELISA. The chimeric antibody concentration in the culture supernatant of COS-7 was calculated by sandwich ELISA. In this concentration calculation, a human chimeric antibody known for its concentration was used as a standard. The chimeric antibody (final concentration: 1 μg/ml) was added to human DLL3/BaF3 cells suspended in a FACS buffer (PBS containing 1% fetal bovine serum). After incubation at 4° C. for 30 minutes and washing, the cells were reacted with FITC-labeled anti-human antibodies (Beckman Coulter, Inc.), and the binding of the chimeric antibody was analyzed using a flow cytometer FACSCalibur. […] Human DLL3-Fc was immobilized on a Nunc immunoplate, and the binding of each chimeric antibody to the immobilized protein was analyzed. […] The absorbance was determined. […]
COS-7 cells were transfected with the DL306 chimeric antibody expression vector and allowed to transiently express the chimeric antibody. […] The chimeric antibody concentration in the culture supernatant of COS-7 was calculated by sandwich ELISA. […] After incubation at 4° C. for 30 minutes and washing, the cells were reacted with FITC-labeled anti-human antibodies (Beckman Coulter, Inc.), and the binding of the chimeric antibody was analyzed using a flow cytometer FACSCalibur.

binding result: binds
B1: DL306 human chimeric antibody (antibody, human IgG1, kappa)
heavy: EVQLQQSGPELVKPGASVKMSCRASGYTFTDYYMKWVKQSHGKSLEWIGDINPNNGDTFYNQKFKGKATLTIDKSSSTAYMQLNSLTSDDSAVYYCARDGNYAYFDYWGQGTTLTVSS[in this place human IgG1 constant region]
light: DIVLTQSPASLAVSLGQRATISCRASKSVSTSGYSYMHWYQQKPGQPPKLLIFLASNLESGVPARFSGSGSGTDFTLNIHPVEEEDAATYYCQHSRHLPWTFGGGTKLEIKRTVAAPSVFIFPPSDEQLKSGTASVVCLLNNFYPREAKVQWKVDNALQSGNSQESVTEQDSKDSTYSLSSTLTLSKADYEKHKVYACEVTHQGLSSPVTKSFNRGEC
notes: Mouse variable regions with human IgG1 constant regions; also called chimeric antibody DL306; DL306 chimeric antibody
